Laboratory results taken from the supplement of paper PMC5499739.
In all, about 16,000 sequences were measured (“Z-score”: median about -0.37, highest 2% from about 3.2 on). This is one part of the list.

The sequences below were run on RBM10 RRM1-ZnF (GST-tagged construct) (assay: RNAcompete 7-mer binding Z-score; higher = stronger binding preference).
Experimental: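 RNAcompete: 20 pmol GST-tagged RBM10 RNA-binding constructs were incubated with a designed RNA pool of about 241,000 sequences up to 41 nt (1.5 nmol) on glutathione beads for 30 min at 4 °C and washed. Bound RNAs were identified by microarray hybridisation. Each RNA 7-mer is scored by a one-sided Z-score of its enrichment, computed over probes that contain the 7-mer within longer pool sequences.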

Row | Sequence | RNAcompete 7-mer binding Z-score
1 | UUCUCAG | -0.6
2 | UAACAUA | -0.363
3 | UGCGCUG | -0.155
4 | UGUCAGG | 0.371
5 | CCAGGGA | 1.51
6 | UGCUCGU | -0.633
7 | AAGGAUC | 1.32
8 | UCCGGCA | -0.785
9 | AAAUUUA | -0.425
10 | GCGGUCU | -0.136
11 | UAAUGCU | -0.74
12 | GCCACAU | -0.591
13 | UGAACUC | -0.672
14 | CGCAGGU | 0.355
15 | UCCGACG | -0.548
16 | UGCAAGU | 0.0495
17 | AAUAAUG | -0.0837
18 | GCUUGUU | -0.626
19 | UACUUGA | -0.555
20 | AUAAGUU | -0.0577
21 | UAUUUCA | -0.623
22 | GAUUGGU | 1.91
23 | CGUGGGC | 1.85

Row | Sequence | RNAcompete 7-mer binding Z-score
24 | UGAACGU | -0.181
25 | AAACAUG | -0.149
26 | UUUGGGG | 2.72
27 | CAUGUUU | -0.707
28 | AGCCAUU | -0.941
29 | GAGCUCA | -0.613
30 | AUAUUCA | -0.509
31 | AUCUUCC | -0.691
32 | AGAUAUC | -0.688
33 | AUCAGAG | 0.095
34 | GCGACUU | -0.519
35 | GGACCAG | 0.79
36 | CGUCUCA | -0.737
37 | GUAUAUC | -0.214
38 | UCUUUCA | -0.841
39 | UUUUGCG | -0.785
40 | AUUAUAU | -0.243
41 | UCGUUGC | -0.522
42 | UUUCGAG | -0.379
43 | UAAGACU | -0.558
44 | GUGAACA | 0.573
45 | GAGCUAG | 0.566
46 | ACGGUAA | 0.872

Row | Sequence | RNAcompete 7-mer binding Z-score
47 | CAACCCG | -0.597
48 | AGAACUU | -0.688
49 | ACCUUGA | -0.834
50 | ACGUGGU | 1.23
51 | GGGAGAA | 2.46
52 | AAACGCA | -0.347
53 | CCAUCGC | -0.772
54 | GGCAACC | -0.0772
55 | GUAUCUU | -0.639
56 | GCUAUGU | -0.272
57 | AACCAAG | -0.217
58 | AUAAAGA | 0.056
59 | UGUCCAA | -0.681
60 | UGCCGGU | 0.0463
61 | AUUUCCU | -0.909
62 | ACGCGUG | 0.00404
63 | CCUAACA | -0.815
64 | GUGUCUC | -0.422
65 | AAUGGCC | 0.287
66 | UUCCGCG | -0.704
67 | AUAACUC | -0.678
68 | GGGACGU | 1.76
69 | AUCCACG | -0.578

Row | Sequence | RNAcompete 7-mer binding Z-score
70 | AGAUAUU | -0.399
71 | CUUUGAA | -0.733
72 | GACUACG | -0.0804
73 | CCACGUU | -0.529
74 | UCAGUCU | -0.681
75 | AACGCCC | -0.659
76 | CCUUAGC | -0.73
77 | GCGGUUG | 1.42
78 | CAUUCAC | -0.688
79 | GUCGGUU | 0.244
80 | CUUGAUG | -0.324
81 | GUAAGAG | 1.23
82 | UGAGGUA | 1.97
83 | UUGAGUC | -0.48
84 | CACCCUC | -0.578
85 | UUUGUCU | -0.678
86 | UGCGGCU | 0.0593
87 | UGUAGUA | 0.108
88 | AUUACUC | -0.672
89 | ACAUAUA | -0.714
90 | CGCUGUG | -0.272
91 | UCGACGA | -0.327
92 | CAGUGGA | 1.38

Row | Sequence | RNAcompete 7-mer binding Z-score
93 | ACUUGAC | -0.763
94 | GAUACGG | 1.82
95 | CUCCCAG | -0.587
96 | GGGCCGA | 0.738
97 | CGUUUAU | -0.62
98 | GUAAGUC | -0.139
99 | AACUUAA | -0.5
100 | UACCCGA | -0.717
101 | GUCUGAC | -0.529
102 | UCUCGAC | -0.873
103 | CGGAAAC | 0.043
104 | GAGUGCU | 0.056
105 | AAGGGAU | 3.65
106 | GAAACCU | -0.802
107 | GCAGAAU | 0.413
108 | CAACUUC | -0.883
109 | AAAUCCA | -0.733
110 | CCUUAUU | -0.922
111 | UGCCGUG | -0.129
112 | UUCCCCC | -0.373
113 | CUGAUCG | -0.535
114 | ACGCCGG | -0.399
115 | AGACAGG | 1.59

Row | Sequence | RNAcompete 7-mer binding Z-score
116 | UAGUGAC | 0.0398
117 | UGCUGCU | -0.396
118 | GAUAUGC | -0.0577
119 | UUAAUUA | -0.36
120 | AAUUCCC | -0.873
121 | UAUCACA | -0.24
122 | UCGUUGA | -0.483
123 | CGCGCGC | -0.295
124 | CGAACGA | -0.123
125 | CUCGGGA | 0.426
126 | GUGACGA | 0.521
127 | GUAAAGA | 0.547
128 | UAGUGGU | 1.33
129 | UACGCCA | -0.487
130 | GCGACCA | -0.175
131 | CACUACA | -0.685
132 | GUUCCAU | -0.711
133 | AUGGAGA | 2.62
134 | UCGAGAC | -0.344
135 | GACCGUA | -0.62
136 | UCGAUAG | -0.149
137 | ACUCUUA | -0.896
138 | GGGGAAA | 3.19

Row | Sequence | RNAcompete 7-mer binding Z-score
139 | UCCAGAG | -0.35
140 | AUGGAAA | 2.57
141 | CACCAUA | -0.691
142 | UGGCGCC | -0.158
143 | GCUAGAG | 0.543
144 | AGGACUA | -0.0934
145 | AACGAUU | -0.483
146 | UAAAAAG | 0.16
147 | ACCGGGU | 0.631
148 | UUAGGCU | 0.095
149 | UGUAUAG | 0.0528
150 | CAACUCG | -0.691
151 | AGCGCUC | -0.746
152 | GUCCGUC | -0.366
153 | UCUCAGC | -0.678
154 | AUCCCAG | -0.409
155 | GAAUCAC | -0.321
156 | AUACUUG | -0.555
157 | UUAAAUG | -0.331
158 | CUGACUG | -0.217
159 | GUAGCUA | -0.0642
160 | CACGAAG | -0.11
161 | GCCGACC | -0.389

Row | Sequence | RNAcompete 7-mer binding Z-score
162 | CAUGUGG | 0.748
163 | UACUUUC | -0.974
164 | UCGACGU | -0.555
165 | UGGGUGG | 4.14
166 | AAGGUCU | -0.0739
167 | CGAUGCA | -0.392
168 | AUGCCCU | -0.808
169 | UAACGUA | -0.282
170 | AGCACGC | -0.188
171 | CUCACUU | -0.925
172 | AUCUGAC | -0.548
173 | GUCCACA | -0.418
174 | CAGGUUC | -0.0609
175 | AUUAUUU | -0.571
176 | CUUAAAG | -0.763
177 | UUUGUAC | -0.617
178 | CGGUGUA | 0.654
179 | UCGCUGG | -0.0382
180 | CGCACCG | -0.292
181 | ACAGCCA | -0.626
182 | CUCCCCG | -0.23
183 | AUACCAG | -0.292
